These results are taken from paper PMC5892938.

Some of the results follow. At the low end of the ranking, values are background and their order means little.

For this assay, the target named is GST-SBP-SLBP (stem-loop binding protein) (UniProt Q14493). The assay can be described thus: targeted RNA Bind-n-Seq.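 Also: DESeq read counts versus GST-SBP nonspecific binding control pulldown.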 The conditions noted are these: RBNS binding buffer: 25 mM Tris pH 7.5, 150 mM KCl, 3 mM MgCl2, 0.1% Tween, 0.5 mg/mL BSA, 1 mM DTT; 27 nM protein, 750 pM RNA pool; temperature not stated; high values mean tight binding.
In the case of “GGUCACGUCUCAAUCAACUCUUCUUCCAGGGAAAGCCCUGGCAAUGUCAACAGCUCGCAGUCAAG”, the binding signal (log2 fold change) was 0.228.

With “GGUCACGUCUCAAUCAACUCCAUAGAGGGGGGGAAAACCCCUUUGCCCUCCAUUUCAACAGCUCGCAGUCAAG”, the binding signal (log2 fold change) was 0.156. With “GGUCACGUCUCAAUCAACUCUAGUCCAGGAGUUUUCUCCUGUAAAUUCAACAGCUCGCAGUCAAG” the figure was -0.164; with “GGUCACGUCUCAAUCAACUCAUUCUCCAGGGAAAACCCUGGCAAUCUCAACAGCUCGCAGUCAAG”, 0.187. For “GGUCACGUCUCAAUCAACUCUACUUCCAGGGAAACCCCUGGUUAAUUCAACAGCUCGCAGUCAAG”, the binding signal (log2 fold change) was -0.0515.

For “GGUCACGUCUCAAUCAACUCCAUAGAGGGGGGGAAAACCCCUUUACCCUCCACAUCAACAGCUCGCAGUCAAG”, the binding signal (log2 fold change) was -0.22. With “GGUCACGUCUCAAUCAACUCGUUUUCAGGAGUUUUCUCCUGCUUUUUCAACAGCUCGCAGUCAAG” the figure was -0.0955; with “GGUCACGUCUCAAUCAACUCUUUAGAGGGGGGGAAAACCCCUUUGCCCUCAUCGUCAACAGCUCGCAGUCAAG”, 0.0432. “GGUCACGUCUCAAUCAACUCCCACGAGGGGGGGAAAACCCCUUUACCCUCAACUUCAACAGCUCGCAGUCAAG”: the binding signal (log2 fold change) was -0.368. On to “GGUCACGUCUCAAUCAACUCAUCGCCCAGGGAAAGCCCUGGUAUAUUCAACAGCUCGCAGUCAAG”, for which the binding signal (log2 fold change) is -0.0256. With “GGUCACGUCUCAAUCAACUCAUCCUCAGGAGUUUACUCCUGUAUUUUCAACAGCUCGCAGUCAAG” the figure was 0.164; with “GGUCACGUCUCAAUCAACUCUAUUCCCAGGGAAAGCCCUGGCUUACUCAACAGCUCGCAGUCAAG”, -0.062.

On to “GGUCACGUCUCAAUCAACUCUUUUUCCAGGGAAAUCCCUGGUAUUUUCAACAGCUCGCAGUCAAG”, for which the binding signal (log2 fold change) was -0.298. On to “GGUCACGUCUCAAUCAACUCAGUCCCAGGAGUUUACUCCUGCUUUCUCAACAGCUCGCAGUCAAG”, for which the binding signal (log2 fold change) was -0.0425.

“GGUCACGUCUCAAUCAACUCUUCCUCCAGGGAAAGCCCUGGCAUACUCAACAGCUCGCAGUCAAG”: the binding signal (log2 fold change) was -0.0298.

“GGUCACGUCUCAAUCAACUCUACGCCAGGAGUUUCCUCCUGUAUUUUCAACAGCUCGCAGUCAAG”: the binding signal (log2 fold change) amounted to 0.00566.

As to “GGUCACGUCUCAAUCAACUCUUCCCCAGGAGUUUCCUCCUGCUUUCUCAACAGCUCGCAGUCAAG”, the binding signal (log2 fold change) was 0.0304. On to “GGUCACGUCUCAAUCAACUCAUCUCCAGGAGUUUUCUCCUGCUAAGUCAACAGCUCGCAGUCAAG”, for which the binding signal (log2 fold change) was -0.0227. Consider “GGUCACGUCUCAAUCAACUCCAAAGAGGGGGGGAAAACCCCUUUGCCCUCAAUAUCAACAGCUCGCAGUCAAG”, for which the binding signal (log2 fold change) was found to be 0.359. As to “GGUCACGUCUCAAUCAACUCAAUCCCCAGGGAAAUCCCUGGCUUAUUCAACAGCUCGCAGUCAAG”, the binding signal (log2 fold change) is -0.0543.
